We go through 5 compounds from PubChem BioAssay (NCI).

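Following 48 hours of exposure in 96-well plates, responses at five concentrations were used to interpolate endpoints linearly. Abbreviation: GI50, concentration required for 50% inhibition of growth. TGI marks complete inhibition of growth.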

The subject of this assay is NCI-H322M lung. Put plainly: NCI anticancer screen, dose series, 48 h.
In the case of `O=C(N/N=C/c1ccc(Cl)s1)c1[nH]c2ccc(Br)cc2c1-c1ccccc1`, the GI50 is 1.41 µM and the TGI is over 100 µM.

With `NC(=O)c1cccc(-n2ccc3cc(NC(=O)Nc4ccc(N5CCOCC5)c(C(F)(F)F)c4)ccc32)n1`, the GI50 is 1.8 µM and the TGI came out at 5.25 µM.

As to `COc1cc2c3c(n(CCCN4CCCCC4)c(=O)c2cc1OC)-c1cc2c(cc1C3=O)OCO2`, the GI50 is 1.51 µM and the TGI is 2.88 µM.

As to `Cc1ncn(-c2ccc(/C=N/Nc3ccnc4cc(Cl)ccc34)cc2)c1C`, the GI50 is 1.92 µM and the TGI came to 3.98 µM.

On to `CCOC(=O)c1c(NCC(=O)Nc2cccc([N+](=O)[O-])c2)sc(C(C)=O)c1C`, for which the GI50 is 2.16 µM and the TGI was found to be 5.85 µM.
